From the supplement of paper PMC8183993
“And” between values parts separate entries of the source, which are not always exact repeats. Equal values may be shown once. Where a name gives a salt, the structure may show the parent alone. ± gives the standard deviation of the averaged measurements. Over roughly 3,200 compounds, “nuclei count (viability) relative to DMSO” has its median near 99; the lowest 2% begin near 16. The list shows a part of the results.

Each molecule was assayed on U2OS (assay: nuclei count (viability) relative to DMSO (% of DMSO); higher = more viable cells). Details: 10 µM; 24 h.
Procedure: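 Primary image-based screen in U2OS cells: compounds at 10 uM for 24 h, then a 1 h o-propargyl-puromycin (OPP) pulse, click labelling, and high-throughput microscopy. Mean cytoplasmic OPP intensity and nuclei count were normalised to DMSO wells within each plate (DMSO = 100) and averaged over triplicate plates.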

Row | SMILES | nuclei count
1 | O=C(/C=C/c1ccc(O)c(O)c1)O[C@H](Cc1ccc(O)c(O)c1)C(=O)O [Rosmarinic acid] | 88 ± 5.2
2 | CCCCOc1cc(C(=O)OCCN(CC)CC)ccc1N [Benoxinate hydrochloride] | 102
3 | CC(C)c1ccccc1S(=O)(=O)c1cc(N)c2ncccc2c1[N+](=O)[O-] | 89.8
4 | CCOC(=O)C1=C(N)Oc2ccc(Br)cc2C1C(C#N)C(=O)OCC (configuration not stated) | 87.1 ± 14
5 | NC1(Cc2ccc(Cl)cc2)CCN(c2ncnc3[nH]ccc23)CC1 | 73.1
6 | Cc1cc(C(C)Nc2ccccc2)c2nc(N3CCOCC3)cc(=O)n2c1 (configuration not stated) | 99.3
7 | Clc1ccc2nsnc2c1NC1=NCCN1 [Tizanidine hydrochloride] | 101
8 | Clc1ccc2nsnc2c1NC1=NCCN1 [Tizanidine HCl] | 90.8
9 | Cc1cc(Nc2cc(N3CCN(C)CC3)nc(Sc3ccc(NC(=O)C4CC4)cc3)n2)n[nH]1 [VX-680 (MK-0457, Tozasertib)] | 46.4
10 | CC(C)Oc1ccc2c(=O)c(-c3ccccc3)coc2c1 [Ipriflavone] | 93.1
11 | CC(=O)Nc1nnc(S(N)(=O)=O)s1 [Acetazolamide] | 98.3
12 | Nc1nc(OCc2cc(Br)cs2)c2[nH]cnc2n1 [Lomeguatrib] | 102
13 | CCCCOc1ccc(C(=O)Nc2ccc(F)cc2F)cc1 | 98.7
14 | Cc1cc2cc3c(C)cc(=O)oc3c(C)c2o1 [Trioxsalen] | 102
15 | CCCOc1ccccc1-c1nc2[nH]nnc2c(=O)[nH]1 [Zaprinast] | 106 ± 3.4
16 | CCC[C@@H]1C[C@@H](C(=O)N[C@@H]([C@H]2O[C@H](SC)[C@H](OP(=O)(O)O)[C@@H](O)[C@H]2O)[C@H](C)Cl)N(C)C1 [Clindamycin phosphate] | 104
17 | CCCCCCNC(=O)n1cc(F)c(=O)[nH]c1=O [Carmofur] | 97.7
18 | Cc1nc(C(=O)NCC(=O)O)c(O)c2ccc(Oc3ccccc3)cc12 | 106
19 | COC(=O)C1=CO[C@@H](O)[C@@H]2C(CO)=CC[C@H]12 [Genipin] | 87.2
20 | COc1cccc2c1C(=O)c1c(O)c3c(c(O)c1C2=O)C[C@@](O)(C(=O)CO)C[C@@H]3O[C@H]1C[C@H](N)[C@H](O[C@@H]2CCCCO2)[C@H](C)O1 [Pirarubicin] | 33
21 | COc1cc2c(NC3CCN(C(C)C)CC3)nc(N3CCC(F)(F)CC3)nc2cc1OCCCN1CCCC1 | 50.6
22 | CC#C[C@]1(O)CC[C@H]2[C@@H]3CCC4=CC(=O)CCC4=C3[C@@H](c3ccc(N(C)C)cc3)C[C@@]21C [Mifepristone (Mifeprex)] | 111
23 | CC#C[C@]1(O)CC[C@H]2[C@@H]3CCC4=CC(=O)CCC4=C3[C@@H](c3ccc(N(C)C)cc3)C[C@@]21C [Mifepristone] | 97.5 ± 7.4
24 | COc1cc(SC)ccc1C(=O)N1CCC(Cc2ccccc2)CC1 | 106
25 | CC[C@@H]1C(=O)N(C)c2cnc(Nc3ccc(C(=O)N[C@H]4CC[C@H](N5CCN(CC6CC6)CC5)CC4)cc3OC)nc2N1C(C)C [BI6727 (Volasertib)] | 34.4
26 | CCc1cccc(CC)c1NC(=O)N1Cc2[nH]nc(NC(=O)c3ccc(N4CCN(C)CC4)cc3)c2C1 | 44.2

Row | SMILES | nuclei count
27 | Nc1c(O)cc(O)cc1C=Cc1ccc(O)cc1 [Aminoresveratrol sulfate] | 86.7
28 | Nc1nc(=O)n([C@@H]2CS[C@H](CO)O2)cc1F [(-)-Emtricitabine] | 91
29 | COc1ccc(Cl)cc1C(=O)NCCc1ccc(S(=O)(=O)NC(=O)NC2CCCCC2)cc1 [Glibenclamide] | 103 ± 4.1
30 | COc1ccc(Cl)cc1C(=O)NCCc1ccc(S(=O)(=O)NC(=O)NC2CCCCC2)cc1 [Glyburide] | 102
31 | C[C@@H]1C/C=C/C=C/C=C/C=C/[C@H](O[C@@H]2O[C@H](C)[C@@H](O)[C@H](N)[C@@H]2O)C[C@@H]2O[C@](O)(C[C@@H](O)C[C@H]3O[C@@H]3/C=C/C(=O)O1)C[C@H](O)[C@H]2C(=O)O [Natamycin (Pimaricin)] | 108
32 | CC(C(O)c1ccc(O)cc1)N1CCC(Cc2ccccc2)CC1 (configuration not stated) [Ifenprodil hemitartrate] | 88.8
33 | CC(C(O)c1ccc(O)cc1)N1CCC(Cc2ccccc2)CC1 (configuration not stated) [Ifenprodil tartrate] | 109
34 | CCCn1c(=O)c(C)cn2nc(N)nc12 | 81.5
35 | CCn1c(=O)c2c(nc(/C=C/c3ccc(OC)c(OC)c3)n2C)n(CC)c1=O [Istradefylline (KW-6002)] | 92.8
36 | Cc1ccc(OCC(O)C(C)NC(C)C)c2c1CCC2 (configuration not stated) [ICI-118,551 hydrochloride] | 99.7
37 | c1ccc2cc(C3=NCCN3)ncc2c1 [BU 226 hydrochloride] | 105
38 | CC1=NN(c2ccc(C)c(C)c2)C(=O)/C1=N\Nc1cccc(-c2cccc(C(=O)O)c2)c1O | 98.3
39 | COC(=O)N/N=C/c1c[n+]([O-])c2ccccc2[n+]1[O-] [Carbadox] | 84.8
40 | CN(C(=O)CN(CCO)CC(=O)N(C)C(C)(C)Cc1ccccc1)C(C)(C)Cc1ccccc1 [Oxethazaine] | 97.9
41 | Cc1cc(C)nc(NS(=O)(=O)c2ccc(N)cc2)n1 [Sulfamethazine] | 103
42 | Cc1cc(C)nc(NS(=O)(=O)c2ccc(N)cc2)n1 [Sulfamethazine sodium salt] | 104
43 | CCN(c1ccccc1)c1cc(=NC)n(C)c(C)n1 | 89.5
44 | COc1cc(NS(=O)(=O)c2ccc(N)cc2)ncn1 [Sulfamonomethoxine] | 110
45 | CC1(C)O[C@@H]2C[C@H]3[C@@H]4C[C@H](F)C5=CC(=O)C=C[C@]5(C)[C@@]4(F)[C@@H](O)C[C@]3(C)[C@]2(C(=O)CO)O1 [Fluocinolone acetonide] | 97.2
46 | CC1(C)O[C@@H]2C[C@H]3[C@@H]4C[C@H](F)C5=CC(=O)C=C[C@]5(C)[C@@]4(F)[C@@H](O)C[C@]3(C)[C@]2(C(=O)CO)O1 [Fluocinolone acetonide (Flucort-N)] | 107
47 | CC(C)[C@H](N)C(=O)OCCOCn1cnc2c(=O)nc(N)[nH]c21 [Valacyclovir hydrochloride] | 95.8
48 | CN1CCN2c3ncccc3Cc3ccccc3C2C1 (configuration not stated) [Mirtazepine] | 83
49 | CN1CCN2c3ncccc3Cc3ccccc3C2C1 (configuration not stated) [Mirtazapine] | 107
50 | CC(C)N(CC[C@H](c1ccccc1)c1cc(CO)ccc1O)C(C)C | 98.7
51 | CCOC(=O)/C=C(C)/C=C/C=C(C)/C=C/c1c(C)cc(OC)c(C)c1C [Etretinate] | 91.8
52 | CC(C)(C)c1cc(NC(=O)Nc2ccc(-c3cn4c(n3)sc3cc(OCCN5CCOCC5)ccc34)cc2)no1 [Quizartinib (AC220)] | 59.4

Row | SMILES | nuclei count
53 | CN1CCN(c2ccc(-c3cccc(CN4CCOCC4)c3)cc2NC(=O)c2c[nH]c(=O)cc2C(F)(F)F)CC1 | 108
54 | Nc1nc2c(cnn2CCc2ccccc2)c2nc(-c3ccco3)nn12 | 102
55 | O=C(/C=C/c1cccc(S(=O)(=O)Nc2ccccc2)c1)NO [Belinostat (PXD101)] | 30
56 | C=CCOc1ccccc1OCC(O)CNC(C)C (configuration not stated) [Oxprenolol hydrochloride] | 105
57 | NC[C@H]1O[C@H](O[C@H]2[C@H](O)[C@@H](O[C@H]3O[C@H](CO)[C@@H](O)[C@H](N)[C@H]3O)[C@H](N)C[C@@H]2N)[C@H](N)C[C@@H]1O [Tobramycin] | 102 ± 2.4
58 | Cc1c(N)c(=O)n(-c2ccccc2)n1C [Ampyrone] | 91.4
59 | CC#CCn1c(N2CCC[C@@H](N)C2)nc2c1c(=O)n(Cc1nc(C)c3ccccc3n1)c(=O)n2C [Linagliptin (BI-1356)] | 105
60 | CCN(CC)CCOCCOC(=O)C1(c2ccccc2)CCCC1 [Carbetapentane citrate] | 98 ± 3.8
61 | COc1cc(NC(=O)c2ccccn2)ccc1Cl | 110
62 | CCN(CCCCOC(=O)c1ccc(OC)c(OC)c1)C(C)Cc1ccc(OC)cc1 (configuration not stated) [Mebeverine hydrochloride] | 112
63 | Cc1cc(C(C)(C)C)cc(C)c1CC1=NCCN1 [Xylometazoline hydrochloride] | 88.4
64 | CCN(CC)C(=O)C1(c2ccccc2)CC1CN (configuration not stated) [Milnacipran HCl] | 94
65 | CC(C)(CO)[C@@H](O)C(=O)NCCC(=O)O [Pantothenic acid (pantothenate)] | 100
66 | O=c1nc2ccccc2c2n1CC(CN1CCN(c3ccccc3)CC1)N2 (configuration not stated) | 100
67 | O=P(O)(O)C(O)(Cn1ccnc1)P(=O)(O)O [Zoledronic Acid (Zoledronate)] | 99.2
68 | N#C/C(=C(/N)Sc1ccc(N)cc1)c1ccccc1C(F)(F)F | 100 and 106
69 | COc1cc2nc(N3CCN(C(=O)C4COc5ccccc5O4)CC3)nc(N)c2cc1OC (configuration not stated) [Doxazosin mesylate] | 110
70 | O=c1c(O)c(-c2ccc(O)cc2)oc2cc(O)cc(O)c12 [Kaempferol] | 102
71 | CCN(CC)C(=O)Nc1ccc(OCC(O)CNC(C)(C)C)c(C(C)=O)c1 (configuration not stated) [Celiprolol HCl] | 106
72 | N[C@H]1CONC1=O [(S)-(-)-Cycloserine] | 96.3
73 | CCCCC1C(=O)N(c2ccccc2)N(c2ccc(O)cc2)C1=O (configuration not stated) [Oxyphenbutazone] | 42
74 | CNC(=O)c1ccc(N2C(=S)N(c3ccc(C#N)c(C(F)(F)F)c3)C(=O)C2(C)C)cc1F [MDV3100 (Enzalutamide)] | 100
75 | COc1cc(OC)c(NC(=O)Nc2cc(C)on2)cc1Cl | 96.3
76 | CN1CCN(CCc2ccc(Cl)c(Cl)c2)CC1 [BD 1063 dihydrochloride] | 104
77 | CC(=O)O[C@]1(C(C)=O)CC[C@H]2[C@@H]3C=C(Cl)C4=CC(=O)CC[C@]4(C)[C@H]3CC[C@@]21C [Chlormadinone acetate] | 100
